From paper PMC4336329 (PLoS ONE, 2015)
Hit rate of the full screen: of about 310,000 compounds, about 2,200 (0.71%) showed an effect of 50% or more. Effects have a minus sign here. The list shows a part of the results.

Molecular target: human ether-à-go-go-related gene (hERG) potassium channel (human, UniProt Q12809)
Assay: primary screen, population patch clamp on CHO cells stably expressing hERG

human ether-à-go-go-related gene (hERG) potassium channel, sequence (Q12809 whole entry, looked up): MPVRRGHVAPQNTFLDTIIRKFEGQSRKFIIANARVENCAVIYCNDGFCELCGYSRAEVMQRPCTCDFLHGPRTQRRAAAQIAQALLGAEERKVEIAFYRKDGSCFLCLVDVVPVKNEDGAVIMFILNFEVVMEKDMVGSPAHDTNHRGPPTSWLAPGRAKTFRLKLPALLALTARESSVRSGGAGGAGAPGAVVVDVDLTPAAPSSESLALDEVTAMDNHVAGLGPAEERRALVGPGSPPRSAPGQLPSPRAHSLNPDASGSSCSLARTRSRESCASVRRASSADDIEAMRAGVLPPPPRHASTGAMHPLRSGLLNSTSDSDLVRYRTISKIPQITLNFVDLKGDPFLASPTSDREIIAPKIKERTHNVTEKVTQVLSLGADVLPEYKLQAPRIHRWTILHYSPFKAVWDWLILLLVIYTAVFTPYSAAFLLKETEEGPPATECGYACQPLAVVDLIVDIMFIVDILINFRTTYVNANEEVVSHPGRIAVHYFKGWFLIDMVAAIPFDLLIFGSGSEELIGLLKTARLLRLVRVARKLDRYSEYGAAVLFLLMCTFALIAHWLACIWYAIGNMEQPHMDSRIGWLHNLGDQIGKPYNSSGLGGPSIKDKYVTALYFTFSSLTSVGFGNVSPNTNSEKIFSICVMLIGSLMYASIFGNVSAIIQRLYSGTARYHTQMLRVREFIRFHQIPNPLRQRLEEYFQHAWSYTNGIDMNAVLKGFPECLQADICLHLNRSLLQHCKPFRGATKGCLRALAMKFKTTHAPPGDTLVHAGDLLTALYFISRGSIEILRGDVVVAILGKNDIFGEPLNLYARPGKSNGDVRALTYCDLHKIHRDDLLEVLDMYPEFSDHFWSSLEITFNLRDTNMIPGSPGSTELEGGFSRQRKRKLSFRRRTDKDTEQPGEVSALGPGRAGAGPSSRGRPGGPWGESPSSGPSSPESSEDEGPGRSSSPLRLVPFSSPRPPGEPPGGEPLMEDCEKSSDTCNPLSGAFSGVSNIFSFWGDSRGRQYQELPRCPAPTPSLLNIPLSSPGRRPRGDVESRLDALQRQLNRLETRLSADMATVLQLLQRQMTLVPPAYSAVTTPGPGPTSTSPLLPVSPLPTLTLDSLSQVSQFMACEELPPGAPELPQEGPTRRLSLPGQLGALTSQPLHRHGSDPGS

Compound | hERG current change (%, negative = inhibition) at 1uM [%]
Cc1cc(=O)n2nc(N3CCC(C(=O)N4CCN(Cc5ccccc5)CC4)CC3)sc2n1 | -0.842
Cc1cccc(Nc2nc(N)nc(CCl)n2)c1 | 11.4
O=C(O)CSC(=S)N1CCCC1 | 10.3
CCN(C(=O)COC(=O)/C=C/c1nc2ccccc2s1)C1CCS(=O)(=O)C1 (stereo not shown) | 12.4
Cc1cc(NC(=O)CN2C(=O)CCSc3ccccc32)no1 | 9.96
C=CCn1c(O)c(N=NC(=O)CNC(=O)/C=C/c2ccc(OC)cc2)c2ccccc21 | 21.7
O=C(O)c1ccc[nH]c1=S | 11
Cc1ncc([N+](=O)[O-])n1CCOC(=O)NC(NCc1cccnc1)C(Cl)(Cl)Cl (stereo not shown) | 9.75
CCOC(=O)N1CCN(C(=O)C2CCN(S(=O)(=O)c3ccc(F)cc3)CC2)CC1 | -13.2
CC(=O)O[C@H]1CC[C@@]2(C)[C@@H](CC[C@H]3[C@@H]4CC[C@H](C(C)O)[C@@]4(C)CC(=O)[C@@H]32)C1 (stereo partly shown) | -8.68
COc1cccc(N2CCN(Cc3nc(N)nc(Nc4ccccc4)n3)CC2)c1 | -31.9
Cn1c(N)c(C(=O)CSc2nnc(C3CC3)n2Cc2ccccc2)c(=O)[nH]c1=O | 6.95
CC(C)OC(=O)COc1cc(O)c2c(=O)cc(-c3ccccc3)oc2c1 | 10.8
Cc1[nH]c2ccccc2c1/C=N/NC(=S)NC(C)C | 16.1
Cc1cc(F)ccc1S(=O)(=O)N1CCCCC1CCNC(=O)C(=O)NCc1ccccn1 (stereo not shown) | -31.1
CCn1c(SC(C)C(=O)Nc2ccc3c(c2)OCCO3)nnc1C1CC1 (stereo not shown) | 12
COc1cc(-c2nc3c(c(C)nn3-c3ccccc3)c3cc(OC)c(OC)cc23)ccc1O | 6.21
CCNC(=O)CSc1nc2ccccc2c(=O)n1OC | 11.3
O=C(CCNC(=O)c1ccc(Br)o1)NCc1ccccc1Cl | 6.09
Cc1cc(Cl)ccc1OCC(=O)NCCOc1nc(N2CCOCC2)nc(N2CCOCC2)n1 | -11
O=C(CNC(=O)c1ccc(F)cc1)N/N=C/c1ccc(O)c([N+](=O)[O-])c1 | 6.48
CCC(Oc1ccccc1)C(=O)NC1C(=O)N2C1SC(C)(C)C2C(=O)[O-].[K+] (stereo not shown) | 7.87

Compound | hERG current change (%, negative = inhibition) at 1uM [%]
Cc1ncc(S(=O)(=O)c2ccc(Cl)cc2)c(-c2ccccc2)n1 | 7.86
CCOc1ccc(-n2c(SCC(=O)O)nc3sc4c(c3c2=O)CCCC4)cc1 | 11
CC1(C)CC(=O)C(C=NCc2ccc3c(c2)OCO3)=C(O)C1 | 3.16
CCCSc1nc2c(cnn2-c2ccc(C)cc2)c(=O)[nH]1 | 11.5
COc1ccc(-c2noc(N3CCC(C(=O)NC(C)c4ccccc4)CC3)n2)cc1 (stereo not shown) | -7.07
CN(C(=O)COC(=O)c1nc(Cl)ccc1Cl)c1ccccc1 | 13.3
CCOC(=O)c1[nH]c(C)c(C(=O)NCc2cccnc2)c1C | 7.42
O=c1c(C=Nc2ccc(Oc3ccccc3)cc2)c[nH]n1-c1cccc(Cl)n1 | 15.5
CCOc1ccc(N/C=C/C(=O)c2ccc(C)cc2)c([N+](=O)[O-])c1 | 9.82
Nc1ccc2oc(CCc3ccccc3)nc2c1 | 2.88
CC(C(=O)NC1CCCCCC1)c1ccc([N+](=O)[O-])cc1 (stereo not shown) | 15.5
O=C1/C(=C\c2ccco2)CCC/C1=C\c1ccco1 | 11.9
O=C(CCCn1c(SCC(=O)c2ccc(Cl)cc2)nc2ccccc2c1=O)NCc1ccco1 | 8.48
O=C(NN1C(=O)NC2(CCCCC2)C1=O)c1ccc(Cl)s1 | 12
COC(=O)CP(=O)(c1ccccc1)c1ccccc1 | 14.7
N#Cc1c(NC(=O)C(=O)NCCCN2CCOCC2)sc2c1CCCC2 | 25
CC(C)CCNC(=O)Cn1c(NCCC(C)C)nc2c1c(=O)n(C)c(=O)n2C | 2.78
CCn1c(CN2CCCCC2)nc2cc(S(=O)(=O)N3CCCCC3)ccc21 | 7.6
CCOc1ccccc1N(C)C(=O)c1ccc2c(=O)n3c(nc2c1)CCCCC3 | 13.4
COc1cccc(NC(=S)N2C3CCCC2CC(NC(=O)C2CC2)C3)c1 (stereo not shown) | 15.7
COCc1cc(C)nc(OCC(=O)N/N=C/c2cc(C)n(-c3c(C)cccc3C)c2C)c1C#N | 14.6
